# In all, about 81,000 sequences were measured (“one-hybrid fitness for binding parS DNA”: median about -0.17, highest 2% from about 0.51 on). This is one part of the list.
# B1: Caulobacter ParB omega fusion; a variant is named by its letters at X, in order, B8GW30 (parent)
# chain: MESVVVGEPGMSEGRRGLGRGLSALLGEVDAAPAQAPGEQLGGSREAPIEILQRNPDQPRRTFREEDLEDLSNSIREKGVLQPILVRPSPDTAGEYQIVAGERAWRAAQRAGLKTVPIMVRELDDLAVLEIGIIENVQRADLNVLEEALSYKVLMEKFERTQENIAQTIGKSXSHVANXMRLLXLPDEVQSYLVSGELTAXHARAIAAAADPVALAKQIIEGGLSVRETEALARKAPNLSAGKSKGGRPPRVKDTDTQALESDLSSVLGLDVSIDHRGSTGTLTITYATLEQLDDLCNRLTRGI
# Variants of: B1
# Test: one-hybrid fitness for binding parS DNA (scaled: cognate 1, non-cognate 0); higher = stronger binding
# Settings: with parS DNA site
# Summary of the method: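 Fitness is the rescaled log change in variant-to-wild-type read ratio, measured by Illumina sequencing of plasmids before and after bacterial one-hybrid selection. The scale puts cognate at 1 and non-cognate at 0. Selection of Caulobacter ParB libraries, four specificity codons randomised, took place in E. coli USO with a HIS3 reporter, site 19 bp from the promoter, over 48 hours at 37°C on M9-minus-histidine with 0.1 mM IPTG and 5 mM 3-AT.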
row,Variant,one-hybrid fitness for binding parS DNA
1,TYNT,≤ 0.2
2,RQRI,≤ 0.2
3,KLRD,≤ 0.2
4,NALE,≤ 0.2
5,VVNN,≤ 0.2
6,EMIL,≤ 0.2
7,TMYW,≤ 0.2
8,TWTF,≤ 0.2
9,AQTT,≤ 0.2
10,EYKS,≤ 0.2
11,QPSD,≤ 0.2
12,HPGC,≤ 0.2
13,VEGP,≤ 0.2
14,PEPE,≤ 0.2
15,WCRR,≤ 0.2
16,YHPY,≤ 0.2
17,EQSG,≤ 0.2
18,QFSV,≤ 0.2
19,NQHQ,≤ 0.2
20,QSKY,≤ 0.2
21,PKLR,≤ 0.2
22,GSST,≤ 0.2
23,FHRT,≤ 0.2
24,TGMG,≤ 0.2

row,Variant,one-hybrid fitness for binding parS DNA
1,YWSP,≤ 0.2
2,INPS,≤ 0.2
3,RNMG,0.819
4,VCPG,≤ 0.2
5,SSGP,≤ 0.2
6,AYQQ,≤ 0.2
7,EHAC,≤ 0.2
8,HGHL,≤ 0.2
9,QKIC,≤ 0.2
10,ECMT,≤ 0.2
11,NADT,≤ 0.2
12,PGHN,≤ 0.2
13,LVAR,≤ 0.2
14,QYHN,≤ 0.2
15,HPLT,≤ 0.2
16,VQAV,≤ 0.2
17,KVRR,≤ 0.2
18,WPFF,≤ 0.2
19,WYAI,≤ 0.2
20,DTIR,≤ 0.2
21,ATAP,≤ 0.2
22,SQGC,≤ 0.2
23,RLKT,0.799
24,TYFT,≤ 0.2

row,Variant,one-hybrid fitness for binding parS DNA
1,FLVG,≤ 0.2
2,TTLN,≤ 0.2
3,VYAS,≤ 0.2
4,VKNF,≤ 0.2
5,QDEG,≤ 0.2
6,HYKF,≤ 0.2
7,PNLL,≤ 0.2
8,AVER,≤ 0.2
9,PRFR,≤ 0.2
10,SRND,≤ 0.2
11,VRES,0.213
12,CCTF,≤ 0.2
13,WKLS,≤ 0.2
14,RIWS,1.05
15,LHSR,≤ 0.2
16,MSSS,≤ 0.2
17,IPTL,≤ 0.2
18,KPTS,≤ 0.2
19,TPAC,≤ 0.2
20,RDLD,≤ 0.2
21,DRTG,≤ 0.2
22,VKRF,≤ 0.2
23,YHHL,≤ 0.2
24,PYSN,≤ 0.2

row,Variant,one-hybrid fitness for binding parS DNA
1,SKEG,≤ 0.2
2,CSLT,≤ 0.2
3,WAMG,≤ 0.2
4,FGRS,≤ 0.2
5,KRMM,≤ 0.2
6,EAAR,≤ 0.2
7,HYIS,≤ 0.2
8,PDPG,≤ 0.2
9,FGQL,≤ 0.2
10,RRQA,0.699
11,FLLP,≤ 0.2
12,LANG,≤ 0.2
13,NNAY,≤ 0.2
14,PRGE,≤ 0.2
15,EHPR,≤ 0.2
16,SFMG,≤ 0.2
17,AWHC,≤ 0.2
18,KPRY,≤ 0.2
19,CHDY,≤ 0.2
20,VQRA,≤ 0.2
21,REHR,≤ 0.2
22,DWCR,≤ 0.2
23,ATAV,≤ 0.2
24,NGSF,≤ 0.2

row,Variant,one-hybrid fitness for binding parS DNA
1,REAI,≤ 0.2
2,LTTD,≤ 0.2
3,HYSK,≤ 0.2
4,RNPQ,≤ 0.2
5,EHIT,≤ 0.2
6,VVKT,≤ 0.2
7,TTFI,≤ 0.2
8,VTTD,≤ 0.2
9,ELNV,≤ 0.2
10,VEFS,≤ 0.2
11,QDPV,≤ 0.2
12,GKCR,≤ 0.2
13,MKDR,≤ 0.2
14,EPIK,≤ 0.2
15,AENG,≤ 0.2
16,RVSI,≤ 0.2
17,VFST,≤ 0.2
18,GWRR,≤ 0.2
19,SEKN,≤ 0.2
20,PKQN,≤ 0.2
21,HVVV,≤ 0.2
22,HNVC,≤ 0.2
23,RIRG,0.955
24,EDRA,≤ 0.2

row,Variant,one-hybrid fitness for binding parS DNA
1,GSSP,≤ 0.2
2,HDTT,≤ 0.2
3,KHEA,≤ 0.2
4,ERNR,≤ 0.2
5,APTD,≤ 0.2
6,RVWT,0.886
7,LWYN,≤ 0.2
8,ETNG,≤ 0.2
9,CHQS,≤ 0.2
10,QEQW,≤ 0.2
11,SSSI,≤ 0.2
12,MWMK,≤ 0.2
13,KMNV,≤ 0.2
14,QCLC,≤ 0.2
15,NDNS,≤ 0.2
16,SLKM,≤ 0.2
17,CDHG,≤ 0.2
18,PMSG,≤ 0.2
19,FIHY,≤ 0.2
20,PPRR,≤ 0.2
21,MIGV,≤ 0.2
22,VERT,≤ 0.2
23,VLKM,≤ 0.2
24,SAER,≤ 0.2

row,Variant,one-hybrid fitness for binding parS DNA
1,QMLY,≤ 0.2
2,TWRG,≤ 0.2
3,TGSS,≤ 0.2
4,LVQV,≤ 0.2
5,SMRN,≤ 0.2
6,CYLS,≤ 0.2
7,GPLP,≤ 0.2
8,VLPE,0.313
9,LRMV,≤ 0.2
10,CWNG,≤ 0.2
11,CHPY,≤ 0.2
12,PQEG,≤ 0.2
13,DALK,≤ 0.2
14,TSKL,≤ 0.2
15,SYTN,≤ 0.2
16,QTGF,≤ 0.2
17,MGAR,≤ 0.2
18,TRSV,≤ 0.2
19,RFFC,0.674
20,VKPS,≤ 0.2
21,SPVL,≤ 0.2
22,CYRP,≤ 0.2
23,KHLE,≤ 0.2
24,SVVT,≤ 0.2

row,Variant,one-hybrid fitness for binding parS DNA
1,QSHH,≤ 0.2
2,RMYT,0.923
3,QDMG,≤ 0.2
4,SHTT,≤ 0.2
5,YGCS,≤ 0.2
6,QLVE,≤ 0.2
7,NCRC,≤ 0.2
8,PWPV,≤ 0.2
9,MYTK,≤ 0.2
10,ILTY,≤ 0.2
11,LHQC,≤ 0.2
12,MTAG,≤ 0.2
13,TPDD,≤ 0.2
14,HDKF,≤ 0.2
15,TVLP,≤ 0.2
16,PALA,≤ 0.2
17,DRHV,≤ 0.2
18,LAYR,≤ 0.2
19,QRCK,≤ 0.2
20,AATY,≤ 0.2
21,PECE,≤ 0.2
22,IAHP,≤ 0.2
23,STCG,≤ 0.2
24,TCSR,≤ 0.2

row,Variant,one-hybrid fitness for binding parS DNA
1,DDAC,≤ 0.2
2,CLAS,≤ 0.2
3,CCTG,≤ 0.2
4,IHQF,≤ 0.2
5,KMMG,≤ 0.2
6,IHGS,≤ 0.2
7,FTKY,≤ 0.2
8,ENFT,≤ 0.2
9,TFAG,≤ 0.2
10,RKTV,≤ 0.2
11,RRMC,0.625
12,ETCG,≤ 0.2
13,LNTG,≤ 0.2
14,CEYL,≤ 0.2
15,PNDS,≤ 0.2
16,RWMT,0.556
17,QNRG,≤ 0.2
18,RLDK,≤ 0.2
19,IGMN,≤ 0.2
20,VHAV,≤ 0.2
21,RETM,≤ 0.2
22,VAMT,≤ 0.2
23,QAQR,≤ 0.2
24,RDAR,≤ 0.2

row,Variant,one-hybrid fitness for binding parS DNA
1,RYSH,≤ 0.2
2,QHQG,≤ 0.2
3,NPQS,≤ 0.2
4,QCSH,≤ 0.2
5,QCRH,≤ 0.2
6,IVFC,≤ 0.2
7,VQNQ,≤ 0.2
8,ATYW,≤ 0.2
9,DRFR,≤ 0.2
10,MPLG,≤ 0.2
11,AGVV,≤ 0.2
12,HAET,≤ 0.2
13,EDRG,≤ 0.2
14,MGEV,≤ 0.2
15,RRHA,0.693
16,LTIT,≤ 0.2
17,LFAG,≤ 0.2
18,WTCM,≤ 0.2
19,ESNF,≤ 0.2
20,LAHM,≤ 0.2
21,PINQ,≤ 0.2
22,TQYR,≤ 0.2
23,KKTV,≤ 0.2
24,ATEK,≤ 0.2

row,Variant,one-hybrid fitness for binding parS DNA
1,QRRM,≤ 0.2
2,VEFC,≤ 0.2
3,MIGT,≤ 0.2
4,TYKE,≤ 0.2
5,GPEA,≤ 0.2
6,ARTH,≤ 0.2
7,GSGI,≤ 0.2
8,LNGW,≤ 0.2
9,LTAA,≤ 0.2
10,QSLI,≤ 0.2
11,RKWK,≤ 0.2
12,MNTG,≤ 0.2
13,QNQI,≤ 0.2
14,QTEK,≤ 0.2
15,SNRC,≤ 0.2
16,IPYA,≤ 0.2
17,FSSI,≤ 0.2
18,SMNC,≤ 0.2
19,TQGS,≤ 0.2
20,QPIP,≤ 0.2
21,ALHI,≤ 0.2
22,NWRN,≤ 0.2
23,RTHI,≤ 0.2
24,IYPF,≤ 0.2

row,Variant,one-hybrid fitness for binding parS DNA
1,ERCS,≤ 0.2
2,REDS,≤ 0.2
3,DMKP,≤ 0.2
4,MSEL,≤ 0.2
5,AWVP,0.241
6,NEQG,≤ 0.2
7,TRQY,≤ 0.2
8,PVTF,≤ 0.2
9,QLMV,≤ 0.2
10,RDYF,≤ 0.2
11,RMYN,0.47
12,QCCV,≤ 0.2
13,LQTQ,≤ 0.2
14,VDTV,≤ 0.2
15,LDRW,≤ 0.2
16,CSPY,≤ 0.2
17,PVKW,≤ 0.2
18,ALEI,≤ 0.2
19,QFWS,≤ 0.2
20,ECMR,≤ 0.2
21,EPQD,0.251
22,WAKS,≤ 0.2
23,YYRG,≤ 0.2
24,SRGW,≤ 0.2

row,Variant,one-hybrid fitness for binding parS DNA
1,EERV,≤ 0.2
2,NTRL,≤ 0.2
3,TFDC,≤ 0.2
4,MVRM,≤ 0.2
5,TFPV,≤ 0.2
6,TTAV,≤ 0.2
7,LNMS,≤ 0.2
8,PHRT,≤ 0.2
9,QIPG,≤ 0.2
10,HCHP,≤ 0.2
11,YCTR,≤ 0.2
12,QPYT,≤ 0.2
13,GCGR,≤ 0.2
14,TPHI,≤ 0.2
15,DFHR,≤ 0.2
16,SMNS,≤ 0.2
17,FFAS,≤ 0.2
18,AFAV,≤ 0.2

# — a collection of fitness landscapes (doi:10.1016/j.celrep.2020.107928)
